# According to the supplement of paper PMC11417369:
# ± gives the standard deviation of the averaged measurements. The list shows a part of the results.
# Test system: PfAP2-I AP2 domain 3 (GST-tagged)
# Experiment: gcPBM binding intensity (ln(normalized median fluorescence intensity)); higher = stronger DNA binding
# Outline: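 Binding intensity values are the highest Masliner-normalised natural-log median intensity among replicate spots of either probe orientation. The binding step lasted 1 h in 1× PBS with 1% milk, 0.2 mg/ml BSA, 0.5% salmon testes DNA and 0.03% Triton X-100, using GST-tagged P. falciparum DNA-binding domains expressed in E. coli on an Agilent 4 × 180k array of primer-extended double-stranded 36-bp intergenic genomic probes plus negative controls. Alexa488 anti-GST antibody and a 488 nm scan detected bound protein.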
row,Sequence,gcPBM binding intensity (ln)
1,GTTGGTAGGCGGTACGGTACACGTAAAGTTTTTCTT [XGTACX_site7706],7.79 ± 0.47
2,ATAAATGACAAATTAACACACATATATTATATATAT [CACACA_site3899],8.16 ± 0.47
3,ACCATATAAATAAACACACACACACGGATATAAATA [CACACA_site7157],8.05 ± 0.44
4,TATATGTTTTATAGTACACACATAAATGGACATACT [CACACA_site2191],7.83 ± 0.33
5,TGAATTTAGATATATACACACAAAAGTATATACAAT [CACACA_site2804],7.53 ± 0.54
6,ATATGTATTAAGTGTACACATATAATCTATCTTGTT [CACACA_site5329],8.21 ± 0.2
7,CCCACTAAAAAACACACACACACACCCATATATATA [CACACA_site6140],8.43 ± 0.65
8,TTTTTTTTATATAGTAGTACTAATTAGAATTTTTAT [XGTACX_site7476],7.82 ± 0.32
9,ATATATTTTAAATATATTATTATTGCATTGTGAAAA [TGCATGCA_negctrl_site106],8.04 ± 0.12
10,CACAGACACGGACACACACACACACCCACATATATA [CACACA_site4355],8.3 ± 0.28
11,AAAAAAAAAAAAAAAACACACATATATATATATATA [CACACA_site2436],10 ± 0.13
12,TCTTAAAAAATAGGGACACGTAAATATAATATATAA [CACACA_negctrl_site554],7.83 ± 0.57
13,TATATATATATATATAGTACATATTAATTAATTTAT [XGTACX_site8198],9.31 ± 0.3
14,ACACATACTAAAATGTTGTGAAATATGATAATGTGA [CACACA_negctrl_site851],7.61 ± 0.58
15,TTATAATAATAGAACTTTATGTAGAAAAAAGGAAAA [XGTACX_negctrl_site116],7.54 ± 0.56
16,AACAGCATTATTTCTTATTTTTTTTTTGATATATTT [GTGCAC_negctrl_site114],7.58 ± 0.73
17,ATATCTATAATAAATACACACATTTATATAGATAAA [CACACA_site7518],7.54 ± 0.52
18,AAACTTGACAGACACACACACACATATATAAAAAAA [CACACA_site757],8.01 ± 0.38
19,GTTATATTATTCATACGTACCTATATTTCTATTAAC [XGTACX_site3447],8.27 ± 0.59

row,Sequence,gcPBM binding intensity (ln)
1,ATGTGTTGGGAAAAGGCATGCACTTTTTTTTTTTTT [TGCATGCA_site707],8.49 ± 0.77
2,TTTTCCTTATATTATGCATGCAGGGTTTGACATTAT [TGCATGCA_site826],8.32 ± 0.8
3,TGATAACCTCACAAATGTACGTACGGGGCTAGCATT [XGTACX_site4157],8.01 ± 0.81
4,AAAAAAAAAAAATAGACACACATATTATATATATAT [CACACA_site1419],9.18 ± 0.24
5,TATTATTCTATACATTGTACATATTTTATAGTATGT [XGTACX_site73],7.72 ± 0.45
6,TTTAAAACCTTACATACACACAAATATGTAAATATA [CACACA_site6464],7.54 ± 0.42
7,AAAAAAAAAAAAAAAACACACATATAGGTATAAATA [CACACA_site7528],8.57 ± 0.46
8,CACGCATATATACATACATGCATATATACATCCATG [TGCATGCA_site667],7.8 ± 0.65
9,TTCATATAACCTTATAGTACATAATTAAAAATATAA [XGTACX_site6328],7.62 ± 0.28
10,ATTTATACATGCTAATGTACTTATTTCACCTATATC [XGTACX_site3120],7.93 ± 0.61
11,TATGGTATATACAACACACACACATATGTATAAATA [CACACA_site6562],8.02 ± 0.47
12,TATATATATAATATTACACACATATATTTATATTTT [CACACA_site3460],8.49 ± 0.4
13,CAAGTATTAATTATGTGTACATATATATATATATAT [XGTACX_site5311],9.36 ± 0.23
14,TATGTATTTATCCACTTACATTTTTACTTTTCCATT [CACACA_negctrl_site1141],7.89 ± 0.54
15,ATATATAGATAATCAAGTACATAACAAGATATAAGA [XGTACX_site2186],7.77 ± 0.68
16,TACTGATCTTTCTAGGTGCGCTGCTACCATTATCGT [GTGCAC_site9538],8.88 ± 0.16
17,AAATGTGAAGTGAATACACACCTAATAAATATAACA [CACACA_site5727],7.58 ± 0.59
18,ACATGAAATGTTTAAAGTACATATATAAATTTTTTT [XGTACX_site4519],7.47 ± 0.43
19,TATATTTAATTATTATGTACTTATAATTTTTGAAAG [XGTACX_site8548],7.64 ± 0.26

row,Sequence,gcPBM binding intensity (ln)
1,AAATATATATACACATATATATATATATATATATAT [CACACA_negctrl_site1742],9.25 ± 0.68
2,CTTTCCTATTTGACACGTACGAAATTTTACATAAAA [XGTACX_site6689],8.41 ± 0.29
3,AAAATAAAAAATATAACACACAATAAATATTTATAT [CACACA_site6986],7.81 ± 0.44
4,TATGAAATATCGTGCACACACGAATAATATAAGAAT [CACACA_site4842],9.85 ± 0.11
5,TATAGGAATATATGGTGTACCTATAAATCTGACATA [XGTACX_site8111],7.62 ± 0.4
6,TTAAATAAGTAATTATGTACATATAATATTCTTTAT [XGTACX_site5280],7.62 ± 0.36
7,TAGAAAATATAAAAATGTACGTAAATAAAATGTGCA [XGTACX_site3459],8.13 ± 0.49
8,AAAAATAAAAATTGCACACTAAAAAATTACGCACGA [CACACA_site3418],10.8 ± 0.37
9,ATTTATATATTTATACGTACTTATATATTGTTACAT [XGTACX_site6254],8.04 ± 0.4
10,ATCCGAGTGTGAAATACACACATGATAATGTGAATG [CACACA_site919],7.48 ± 0.64
11,AATTATATTACAAACTGTACATATATAATTTGTCCA [XGTACX_site6009],7.54 ± 0.45
12,TCTTAAGGAAAAGAGTGTACAGAAATTTTTATTAAC [XGTACX_site6139],7.92 ± 0.49
13,TATAATGAGGATAATAGTACATATGAATACAAAAAA [XGTACX_site3665],8.21 ± 0.5
14,GCCATAAAAATATATACACACATAAAAAAAAATTAT [CACACA_site1176],7.98 ± 0.14
15,TACACAAGCAGACACACACACATATAGATTTATATA [CACACA_site6715],7.78 ± 0.22
16,TTAATATTGTATTTCACACATAATTTAATATACTCA [CACACA_site5678],7.63 ± 0.67
17,AACCACATACCTATAACACACATATACAATATAGAT [CACACA_site7023],8.09 ± 0.4
18,ACATCATAGAAAAATTGATATATATATATATATATA [CACACA_negctrl_site130],9.27 ± 0.44
